Experimental data from PubChem BioAssay AID504832 (National Center for Advancing Translational Sciences (NCATS), 2011).
Among all 310,000 compounds or so, about 18,000 (5.8%) were called active. Inconclusive results, whose numbers are uncertain, are shown with a selection of clear calls. Calls come from the whole dose curve; as a rule, active = well fitted inhibition curve with a large enough effect; inconclusive = small, poorly fitted or top-dose-only effect, or another doubt; inactive = no such curve, though single readings can be large or run the other way. Potencies of inconclusive entries are left out as doubtful fits.

Experiment: Primary qHTS for delayed death inhibitors of the malarial parasite plastid, 48 hour incubation
Details: P. falciparum luciferase growth in erythrocytes; series mostly up to 28.7 µM
How it was run: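 Luciferase-expressing P. falciparum in infected erythrocytes (2% hematocrit, 0.1% parasitemia final) in RPMI 1640/0.5% Albumax were exposed to compound for 48 hours at 37 C, 5% CO2; growth read as luminescence.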
Potency is the fitted concentration of half-maximal effect; tags give direction and shape of the fitted curve.

SMILES	Potency
C[C@@]12C(=O)N(CCO)CC(=O)N1[C@H](/C=C/c1ccccc1)[C@@H]1C(=O)N(c3ccccc3)C(=O)[C@@H]12	inactive
C=CCn1c(=N)n(CC(=O)c2ccc(Br)s2)c2ccccc21	active: 11.7 µM
CCc1ccc(Nc2nnc(SCC(=O)Nc3ccc(C(=O)O)cc3)s2)cc1	active: 4.65 µM
CC1CC2=C(NC(=S)NC2c2cccc(F)c2)/C(=C/c2cccc(F)c2)C1 (stereo not drawn)	inconclusive [inhibitor, single point]
CC(=O)Nc1ccc(/C=C/c2nc(-c3ccccc3O)n[nH]2)cc1	inactive
COc1cc2c(cc1OC)-c1nnc(-c3ccco3)n1C1(CCCC1)C2	inconclusive [inhibitor, single point]
CN1C(=O)C2(OCCCO2)c2ccccc21	inactive
O=C(O)C1(NS(=O)(=O)c2ccc(F)c(Cl)c2)CCCCC1	inactive
CCOC(=O)c1cnc2nc(C)nn2c1N	inactive
Cc1cc(/C=C2\C(=N)N3N=C(CC(=O)N4CCOCC4)SC3=NC2=O)c(C)n1Cc1ccccc1	inactive
COc1ccc(NC(C)=O)cc1NC(=O)CN1CCN(CC(=O)Nc2ccccc2Cl)CC1	inconclusive [inhibitor, partial curve]
CCOc1ccc(CNCCNC(=O)c2nonc2N)cc1	inactive
CC(C)c1ccc(S(=O)(=O)N2CCC3(CC2)OCCO3)cc1	inactive
Cc1cc(F)ccc1S(=O)(=O)Nc1ccccc1C(=O)Nc1ccccc1-c1nc2ccccc2[nH]1	active: 9.28 µM
CC12CCC(c3n[nH]c(=S)nc31)C2(C)C (stereo not drawn)	inactive
O=C(NCCC(=O)N1CCCCCCC1)c1ccc(Br)cc1	active: 13.1 µM
COc1ccc(-n2c(SCC(=O)NCC3CCCO3)nc3c([nH]c4ccccc43)c2=O)cc1 (stereo not drawn)	inactive
COc1ccc(C2c3[nH]c4ccccc4c3C[C@H]3C(=O)N(C4CCN(Cc5ccccc5)CC4)CC(=O)N23)cc1OC (stereo partly drawn)	active: 1.47 µM
Cc1ccccc1NC(=O)C1(C)Cc2ccccc2C(=O)O1 (stereo not drawn)	inconclusive [inhibitor, single point]
COc1ccc(-c2cc(-c3nnc(COC(=O)CC4CCCC4)o3)c3ccccc3n2)cc1OC	inconclusive [inhibitor, single point]
O=C(c1cc(-c2ccc(O)cc2)on1)N1CCCCCC1	inactive
O=C(Nc1cccc(Cl)c1)Nc1sccc1-c1nc2ccccc2s1	inconclusive [inhibitor, partial curve]
CC(C)Oc1ccc(S(=O)(=O)N2CCOCC2)cc1NC(=O)CN1C(=O)NC2(CCCC2)C1=O	inconclusive [inhibitor, partial curve, poor fit]
CC(C)CCOP(=O)(c1ccccc1)c1ccccc1	active: 14.7 µM
CCCCNC(=O)c1sc2nc(C)cc(COC)c2c1-n1cccc1	inconclusive [inhibitor, single point]

SMILES	Potency
CC(=O)Nc1ccc(NC(=O)COc2ccc(S(=O)(=O)N3CCCC3)cc2)cc1	inconclusive [inhibitor, single point]
Cc1nnsc1-c1onc(C)c1C(=O)Nc1cc(Cl)cc(Cl)c1	inconclusive [inhibitor, partial curve]
c1ccc(-c2nc(NC3CCCC3)c3ccccc3n2)cc1	inconclusive [inhibitor, partial curve, poor fit]
COC(=O)c1ccc(OC)c(CN2CCCN(Cc3cc(C)ccc3C)S2(=O)=O)c1	active: 14.7 µM
Cc1ccc(NC(=O)COC(=O)C2CC(=O)N(Cc3ccccc3)C2)cc1F (stereo not drawn)	inactive
O=C(N/N=C/c1cc(Cl)cc([N+](=O)[O-])c1O)c1cccc(S(=O)(=O)N2CCOCC2)c1	inconclusive [inhibitor, single point]
CC1Sc2ccc(S(=O)(=O)CCC(=O)NCc3ccc(Cl)cc3)cc2NC1=O (stereo not drawn)	inactive
CCN(CC)c1ccc(/C=N/N2CC(=O)NC2=S)cc1	inconclusive [inhibitor, single point]
COC(=O)CC1C(=O)NCCN1C(=O)c1ccc2oc(C(C)C)nc2c1 (stereo not drawn)	inactive
CCOC(=O)C1CSC(CC(=O)Nc2ccc(OCC)cc2)C(=O)N1 (stereo not drawn)	inconclusive [inhibitor, single point]
CC(C)C[C@H]1CN=C(Nc2ccccc2)N1CCCCc1ccccc1	inconclusive [inhibitor, partial curve, poor fit]
CN(CC(=O)Nc1ccccc1C(F)(F)F)C(=O)Cc1ccc(S(=O)(=O)N2CCOCC2)s1	inactive
CN(C)c1ccc(C(CNC(=O)c2ccccc2Br)c2c[nH]c3ccccc23)cc1 (stereo not drawn)	inconclusive [inhibitor, single point]
O=C(NC(=C(Cl)Cl)P(=O)(c1ccccc1)c1ccccc1)c1ccccc1	inactive
CC(C)c1ccc(NC(=S)NN2C(C)CCCC2C)cc1 (stereo not drawn)	inconclusive [inhibitor, single point]
Cc1ccc2cccc(S(=O)(=O)N3CCN(c4cccc(Cl)c4)CC3)c2n1	inconclusive [inhibitor, single point]
CCC(Sc1nc(N)c(NC(=O)c2ccc(Br)o2)c(=O)[nH]1)C(=O)O (stereo not drawn)	inactive
COc1ccc(CC(C)Nc2cccc(SC)c2)cc1 (stereo not drawn)	inactive
N/C(=N/OC(=O)c1ccc(Cl)cc1)c1ncc([N+](=O)[O-])s1	inconclusive [inhibitor, partial curve, poor fit]
COc1ccc(-c2nc3ccccc3c(=O)n2CCOc2cc(C)ccc2C)cc1	inconclusive [inhibitor, single point]
O=C(O)CCC(=O)Nc1ccc(C(=O)N2CCCCC2)cc1	inactive
COc1cccc(CNC(=O)c2cc(COc3c(F)cccc3F)on2)c1	inactive
COc1ccc(N2CCN(C(=O)c3nc4nc(C)cc(C)n4n3)CC2)cc1	inconclusive [inhibitor, full curve]
CCCc1nc2c(sc3nc4c(cc32)COC(C)(C)C4)c(=O)o1	inconclusive [inhibitor, partial curve, poor fit]
CCN1CCN(c2ccc(NC(=O)c3ccccc3F)cc2Cl)CC1	inactive

SMILES	Potency
CCN1CCN(c2nc(-c3cccnc3)nc3ccccc23)CC1	inconclusive [inhibitor, single point]
Cc1cccc(C)c1NC(=O)C[N+](C)(C)CC(O)COc1cccc2ccccc12 (stereo not drawn)	inconclusive [inhibitor, single point]
COc1ccc(CC(=O)NCC2(N3CCCCC3)CCCCC2)cc1	inconclusive [inhibitor, partial curve]
COc1ccccc1OCCNC(=O)Cc1ccc(Cl)c(Cl)c1	inconclusive [inhibitor, partial curve, poor fit]
CC1CCN(S(=O)(=O)c2ccc(NC(=O)C3CC3)cc2)CC1	inconclusive [inhibitor, single point]
Cc1ccc(-c2cnc3n2CCCCC3)cc1	inactive
COc1ccc(C(=O)NC(=S)Nc2cccc(Cl)c2N2CCOCC2)cc1[N+](=O)[O-]	inconclusive [inhibitor, single point]
CCCCn1c(CCCNC(=O)c2ccco2)nc2ccccc21	inconclusive [inhibitor, single point]
COc1ccccc1COCC(O)CNCC1(N2CCCCC2)CCCCC1 (stereo not drawn)	inconclusive [inhibitor, single point]
O=C(NNC(=O)c1ccccn1)c1cccc([N+](=O)[O-])c1	active: 13.1 µM
Cc1cc(C)cc(OCCCCCNCCO)c1	inconclusive [inhibitor, full curve, poor fit]
O=C(N/N=C/c1ccc(-c2cccc(C(F)(F)F)c2)o1)c1cccc(F)c1	active: 11.7 µM
CCOc1ccc(CN(C)C(=O)c2ccc(S(=O)(=O)N(C)c3ccccc3OC)cc2)cc1	active: 13.1 µM
N#Cc1ccc(CN2CCN(C(=O)c3cc(C4CC4)nn3-c3ccccc3)CC2)cc1	inconclusive [inhibitor, single point]
COc1cc(COCC(O)CN2CCN(CCN3C(=O)c4cccc5cccc(c45)C3=O)CC2)cc(OC)c1OC (stereo not drawn)	inconclusive [inhibitor, partial curve]
COc1ccc(N(C)S(=O)(=O)c2cccc(C(=O)NC3CCCCC3C)c2)cc1 (stereo not drawn)	inconclusive [inhibitor, single point]
Cn1cccc1Cc1nnc(SCC(=O)Nc2cccc(F)c2)n1CCc1ccccc1	inconclusive [inhibitor, single point]
CCOC(=O)c1ccc(NC(=O)CN(C)S(=O)(=O)c2ccc(Br)s2)cc1	inconclusive [inhibitor, single point]
CCc1cc(SC#N)cc(C)c1NC(=O)CCl	active: 13.1 µM
CC1Sc2ccc(S(=O)(=O)CCC(=O)NCc3ccccc3Cl)cc2NC1=O (stereo not drawn)	inactive
CN1CCN(CC(=O)N2c3ccccc3C(=O)Nc3cccnc32)CC1	inactive
CCOCCCNc1nc2c(-c3ccccc3)nnn2c2ccccc12	inconclusive [inhibitor, full curve]
Nc1nc(NCCOCCO)nc(Nc2cccc(F)c2)c1[N+](=O)[O-]	inconclusive [inhibitor, single point]
